Laboratory results published in the supplement of paper PMC4967469.
IC50 is the fitted dose that halves viability relative to control wells, and lower means more sensitive; fits outside the tested doses are given as limits. AUC is the area under the same curve over the 256-fold range up to the top dose, as a fraction; it is 1 without any effect and falls as sensitivity rises. For part of these data: An inferred top dose was calculated from the reported fits.

Assays:
Experiment in all cases: Viability of human cancer cell lines after 72 h of drug (GDSC screen)
[1] = compound: C=CC(=O)Nc1cc(NC(=O)c2ccc(C)c(NC(=O)c3ccno3)c2)cc(C(F)(F)F)c1 [QL-XI-92]; conditions: top dose 10.24 µM; top dose inferred
Protocol: (§1)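 Human cancer cell lines in 384-well plates, medium with 10% serum, drug for 72 h over a 256-fold dose range (nine 2-fold or five 4-fold steps up to the top dose). Adherent lines were fixed and stained with the nucleic acid dye Syto60, suspension lines read with resazurin; signal relative to control wells, capped at 0 and 100%. One two-parameter sigmoid per drug and line, fitted in a mixed model over all curves with the slope shared within a line.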

[2] = compound: CCC1=C[C@@H]2CN(C1)Cc1c([nH]c3ccccc13)[C@@](C(=O)OC)(c1cc3c(cc1OC)N(C)[C@H]1[C@@](O)(C(=O)OC)[C@H](OC(C)=O)[C@]4(CC)C=CCN5CC[C@]31[C@@H]54)C2 [Vinorelbine]; conditions: top dose 0.064 µM; top dose inferred
Protocol: as §1

[3] = compound: CNCc1ccc(-c2[nH]c3cc(F)cc4c3c2CCNC4=O)cc1 [AG-014699]; conditions: top dose 5 µM; top dose inferred
Protocol: as §1

[4] = compound: COc1cc2nccc(Oc3ccc(NC(=O)C4(C(=O)Nc5ccc(F)cc5)CC4)cc3)c2cc1OC [XL-184]; conditions: top dose 5.12 µM; top dose inferred
Protocol: as §1

[5] = compound: COc1cc2ncnc(Nc3cc(Br)c(O)c(Br)c3)c2cc1OC [WHI-P97]; conditions: top dose 10.24 µM; top dose inferred
Protocol: as §1

[6] = compound: COc1cc2ncnc(Nc3ccc(F)c(Cl)c3)c2cc1OCCCN1CCOCC1 [Gefitinib]; conditions: top dose 0.5 µM
Protocol: as §1

[7] = compound: N=C(N)NC(=N)NCCc1ccccc1 [Phenformin]; conditions: top dose 4000 µM; top dose inferred
Protocol: as §1

[8] = compound: O=c1cc(CN2CCOCC2)occ1OCCCCCSc1ccnc2cc(C(F)(F)F)ccc12 [EHT 1864]; conditions: top dose 10 µM; top dose inferred
Protocol: as §1

[9] = compound: O=c1cc(N2CCOCC2)oc2c(-c3cccc4c3sc3ccccc34)cccc12 [NU-7441]; conditions: top dose 2 µM; top dose inferred
Protocol: as §1

Cell Line	AUC [1]	IC50 [1]	AUC [2]	IC50 [2]	AUC [3]	IC50 [3]	AUC [4]	IC50 [4]	AUC [5]	IC50 [5]	AUC [6]	IC50 [6]	AUC [7]	IC50 [7]	AUC [8]	IC50 [8]	AUC [9]	IC50 [9]
KMRC-1 (kidney, adherent)	0.987	> 10.2 µM	0.955	> 0.064 µM	0.932	> 5 µM	0.966	> 5.12 µM	0.987	> 10.2 µM	0.981	> 0.5 µM	0.918	> 4000 µM	0.972	> 10 µM	0.981	> 2 µM
KMRC-20 (kidney, adherent)	0.988	> 10.2 µM	0.954	> 0.064 µM	0.981	> 5 µM	0.986	> 5.12 µM	0.989	> 10.2 µM	0.918	> 0.5 µM	0.936	> 4000 µM	0.954	> 10 µM	0.954	> 2 µM
KON (head and neck, adherent)	0.986	> 10.2 µM	0.424	0.00249 µM	0.914	> 5 µM	0.987	> 5.12 µM	0.985	> 10.2 µM	0.978	> 0.5 µM	0.926	> 4000 µM	0.971	> 10 µM	0.961	> 2 µM
KP-2 (pancreas, adherent)	0.866	> 10.2 µM	0.692	0.0145 µM	0.986	> 5 µM	0.969	> 5.12 µM	0.981	> 10.2 µM	0.979	> 0.5 µM	0.842	3160 µM	0.986	> 10 µM	0.955	> 2 µM
KP-3 (pancreas, adherent)	0.926	> 10.2 µM	0.788	0.034 µM	0.979	> 5 µM	0.926	> 5.12 µM	0.944	> 10.2 µM	0.984	> 0.5 µM	0.73	1300 µM	0.977	> 10 µM	0.974	> 2 µM
KU-19-19 (bladder, adherent)	0.986	> 10.2 µM	0.959	> 0.064 µM	0.896	> 5 µM	0.987	> 5.12 µM	0.987	> 10.2 µM	0.872	0.477 µM	0.755	1360 µM	0.935	> 10 µM	0.877	> 2 µM
KYM-1 (rhabdomyosarcoma, adherent)	0.975	> 10.2 µM	0.68	0.0117 µM	0.84	2.75 µM	0.991	> 5.12 µM	0.991	> 10.2 µM	0.941	> 0.5 µM	0.871	2860 µM	0.941	> 10 µM	0.954	> 2 µM
KYSE-50 (oesophagus, adherent)	0.853	6.92 µM	0.424	0.00253 µM	0.99	> 5 µM	0.829	2.82 µM	0.964	> 10.2 µM	0.919	> 0.5 µM	0.735	1090 µM	0.956	> 10 µM	0.973	> 2 µM
KYSE-140 (oesophagus, adherent)	0.901	> 10.2 µM	0.718	0.0181 µM	0.966	> 5 µM	0.932	> 5.12 µM	0.776	4.62 µM	0.819	0.336 µM	0.984	> 4000 µM	0.97	> 10 µM	0.957	> 2 µM
KYSE-150 (oesophagus, adherent)	0.988	> 10.2 µM	0.48	0.00354 µM	0.957	> 5 µM	0.962	> 5.12 µM	0.966	> 10.2 µM	0.98	> 0.5 µM	0.842	2640 µM	0.971	> 10 µM	0.978	> 2 µM
KYSE-220 (oesophagus, adherent)	0.962	> 10.2 µM	0.551	0.00556 µM	0.926	> 5 µM	0.963	> 5.12 µM	0.9	> 10.2 µM	0.85	0.412 µM	0.776	1690 µM	0.937	> 10 µM	0.979	> 2 µM
KYSE-410 (oesophagus, adherent)	0.966	> 10.2 µM	0.563	0.00601 µM	0.985	> 5 µM	0.974	> 5.12 µM	0.98	> 10.2 µM	0.894	> 0.5 µM	0.697	935 µM	0.934	> 10 µM	0.935	> 2 µM
KYSE-450 (oesophagus, adherent)	0.93	> 10.2 µM	0.614	0.00807 µM	0.973	> 5 µM	0.776	1.93 µM	0.8	4.62 µM	0.819	0.264 µM	0.51	265 µM	0.985	> 10 µM	0.934	> 2 µM
KYSE-510 (oesophagus, adherent)	0.992	> 10.2 µM	0.436	0.00277 µM	0.968	> 5 µM	0.986	> 5.12 µM	0.988	> 10.2 µM	0.944	> 0.5 µM	0.599	445 µM	0.983	> 10 µM	0.967	> 2 µM
KYSE-520 (oesophagus, adherent)	0.973	> 10.2 µM	0.693	0.0169 µM	0.954	> 5 µM	0.89	> 5.12 µM	0.954	> 10.2 µM	0.936	> 0.5 µM	0.635	670 µM	0.967	> 10 µM	0.973	> 2 µM
